Biological target: PLC from Bacillus cereus (Bacillus cereus, UniProt P09598)

S=C([S-])OC1CC2CC1C1CCCC21.[K+] (centres unmarked) [inhibitor 90, tricyclodecan-9-yl-xanthogenate K]
mode of inhibition (Dixon plot) (Dixon plot of FIG. 13 data (FIG. 14)): partial inhibitor | IC50 (compound 60 fixed at 0.5 μM, visually approximated from initial rate vs inhibitor concentration (FIG. 13), 25° C.): ~20 µM
